Experimental data reported in the supplement of paper PMC3334620.
In all, about 33,000 sequences were measured (“E-score (-0.5 to 0.5)”: median about -0.012, highest 2% from about 0.27 on). The list shows a part of the results.

These sequences were tested against T1, Vhr1 (UniProt P40522) (assay: PBM E-score (8-mer binding enrichment) (E-score (-0.5 to 0.5)); higher = stronger / more preferred TF binding; most listed sequences are background and not binding sites). Conditions: protein concentration: 200 nM; construct: GST-full length.
T1 sequence: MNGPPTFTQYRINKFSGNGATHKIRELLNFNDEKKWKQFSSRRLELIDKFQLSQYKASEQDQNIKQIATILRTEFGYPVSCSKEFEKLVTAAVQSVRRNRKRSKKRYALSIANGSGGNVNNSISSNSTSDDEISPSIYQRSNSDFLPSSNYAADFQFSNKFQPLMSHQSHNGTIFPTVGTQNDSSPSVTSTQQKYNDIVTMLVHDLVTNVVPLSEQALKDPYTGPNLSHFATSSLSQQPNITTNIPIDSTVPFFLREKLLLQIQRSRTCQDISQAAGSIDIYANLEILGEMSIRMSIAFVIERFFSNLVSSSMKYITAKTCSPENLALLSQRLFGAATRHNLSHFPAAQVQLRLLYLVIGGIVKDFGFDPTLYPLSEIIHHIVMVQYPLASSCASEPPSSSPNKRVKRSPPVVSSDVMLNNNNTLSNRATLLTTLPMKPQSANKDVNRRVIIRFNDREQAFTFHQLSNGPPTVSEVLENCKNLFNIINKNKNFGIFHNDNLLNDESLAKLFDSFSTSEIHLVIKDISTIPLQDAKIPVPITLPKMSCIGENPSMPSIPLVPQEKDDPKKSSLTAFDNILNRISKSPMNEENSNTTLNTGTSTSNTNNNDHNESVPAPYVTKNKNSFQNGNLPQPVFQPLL
Procedure, shortened: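 Detection of bound protein used fluorescent anti-GST, with scans normalised by masliner. The proteins were GST-tagged yeast transcription factors applied at about 100-200 nM to universal all-10-mer Agilent arrays made double-stranded by primer extension. Each ungapped eight-base word, pooled with its reverse complement, was scored with an E-score from the Universal PBM Analysis Suite.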

Point of comparison: ATGGGGCG, “PBM E-score” value 0.0437. Against it:
- CGTCGATA — lower, -0.0034
- ATCAAAAC — lower, -0.0539
- AAAGGCTC — lower, -0.223
- ACCTCTTA — higher, 0.0805
- TCTCACAA — higher, 0.0793
- CACATAGA — lower, 0.00197
- ACAGATCA — lower, -0.0142
- GGCGTGGA — lower, -0.0947
- CACTCTCA — lower, -0.0995
- GAAATTAA — lower, -0.0243
- CCTTACGA — lower, -0.17
- ATCTCTAA — lower, -0.00351
- TCATAACA — higher, 0.272
- ATTTATCC — lower, -0.0317
- TAAAATTA — lower, -0.168
- AGAACCCG — lower, -0.0768
- CAAGCAGG — lower, -0.0423
- ACGGCCAA — lower, -0.156
- AGCAACTC — lower, -0.0748
- CGTCTCGC — lower, -0.0775
- AATCTGAA — higher, 0.0756
- AATCTAGC — lower, -0.218
- GCATCAGC — lower, -0.0271
- TAGCATCA — higher, 0.0453
- TCCCAAAA — lower, -0.0725
- CTCCGTTC — lower, -0.0538
- CACAGACC — higher, 0.307
- CGACCACC — lower, -0.00207
- GATGTTTA — higher, 0.118
- ATAATAGA — lower, -0.0909
- CCACCACC — higher, 0.0973
- AATTGAAT — lower, -0.237
- CTACCACC — lower, -0.0685
- GTGACCCA — higher, 0.267
- CGTGCACG — lower, -0.154
- ATCCGCGG — higher, 0.0552
- AATAACGA — lower, -0.0329
- CGATACCC — lower, -0.106
- AGTGTTCG — lower, -0.0146
- AGACAGGC — lower, 0.0179
- AAGGTCCT — lower, -0.285
- ATACACGA — higher, 0.152
- AATCGAGT — higher, 0.0782
- CATACATA — higher, 0.238
- AAACGTAT — higher, 0.0453
- ACTGGCAA — lower, -0.262
- ACCGTAAA — lower, -0.047
- AAATGTGG — higher, 0.0751
- GCGCAAAA — lower, 0.0395
- AGGCGGCC — lower, -0.124
- AGGTCGAC — higher, 0.134
- ACTTGCAC — higher, 0.105
- AGACCACC — lower, -0.0784
- AAGTTCAT — lower, -0.0454
- CACGTTGC — lower, -0.183
- AGGGAGTA — higher, 0.113
- GGACCCCC — lower, -0.356
- GAGCGCGC — higher, 0.181
- ACACTCCT — higher, 0.103
- AATGATAA — higher, 0.106
- AATTCCAC — lower, 0.00803
- TATACGAA — lower, -0.0271
- GGCCAACC — lower, -0.0564
- GGCCAGAC — lower, -0.136
- GGATTAAA — lower, -0.0356
- GCGGTTGA — higher, 0.111
- ATTTAGTA — higher, 0.224
- TCTGGCCA — lower, -0.192
- ATCGACGC — lower, 0.0154
- GCGATACC — lower, -0.0158
- CCTTAGCA — higher, 0.0478
- AGAACTGA — lower, -0.183
- AAGTTCCT — lower, -0.381
- AGTACTAA — higher, 0.128
- AAGACACG — lower, 0.00364
- AGTCCGTC — lower, 0.0219
- AGATTCCA — lower, 0.00955
- ATGTTCAA — lower, -0.144
- CGTGGTTA — higher, 0.0993
- CCGCCTTA — lower, 0.0044
- CAGGTTGG — higher, 0.0923
- ACAATGCA — higher, 0.137
- CCGCACGG — lower, -0.129
- CGAAAGCC — lower, -0.241
- TATATGAA — higher, 0.164
- GAGGTATA — higher, 0.113
- ACGATGCA — lower, -0.0037
- ATAGTAGA — higher, 0.0694
- ACTGTTGA — lower, -0.0703
- AGTATCTG — lower, -0.168
- CATCCAAG — lower, 0.0266
- GCTAGTTA — lower, 0.00532
- CCTTCAAG — lower, -0.248
- AGCACGAT — lower, 0.0348
- AAGGGTAG — lower, -0.0897
- AGCGCGGA — higher, 0.159
- CTTTGCCC — lower, -0.173
- ACGCACTA — higher, 0.116
- CCCCTGAA — higher, 0.0845
- ATGTATGG — lower, 0.0248
- AGACCCCC — lower, -0.325
- ATCTATTA — lower, -0.00749
- ATTCTATG — higher, 0.252
- AGGATATG — higher, 0.161
- ATACCGAA — lower, -0.0363
- TGAACAAA — higher, 0.16
- ATACGGGC — lower, -0.145
- CAGTCTGG — lower, -0.111
- GCAGAATA — lower, -0.124
- CAACTCAC — higher, 0.263
- ACGAGCCC — higher, 0.124
- GCTCGCAC — lower, -0.081
- AAGTCAAA — lower, 0.00983
- AAGCACGG — lower, -0.272
- TGAGGACA — lower, -0.0851
- AAACATTA — lower, -0.0598
- CCGCTTAG — lower, -0.0233
- CCCACAGG — lower, -0.11
- CGGCCGGA — lower, -0.0197
- TCTAACCA — lower, 0.0405
- CCTACAGC — lower, -0.0679
- GAGCTCGA — higher, 0.107
- ATGCCCTC — lower, -0.0196
- CTACAGAA — higher, 0.0819
- ATCATCGC — higher, 0.259
- CCTTTGTC — lower, -0.0631
- CAGAAATA — lower, -0.0398
- AACGGCAC — lower, -0.09
- CTCCGAAG — lower, -0.179
- AATTTTTG — lower, -0.189
- AATCGTGG — higher, 0.214
- CCCTCACG — lower, 0.0387
- GCATGCCC — higher, 0.127
- GGGTTGAC — higher, 0.152
- AAAAGGAG — lower, -0.278
- AGACGACG — lower, -0.0292
- ATCCAGTA — higher, 0.102
- CCCTTGTA — lower, -0.174
- TAGGCACA — lower, -0.0995
- GTGATTTA — higher, 0.321
- TCCGGGAA — lower, -0.0875
- CAGAGATC — higher, 0.0592
- AACTGAAA — lower, -0.0534
- CCCAAGAC — lower, -0.0608
- CTCTCGCA — lower, -0.0103
- CAGAGATG — higher, 0.0531
- CATCTTCA — lower, -0.0611
- CCTGACTC — higher, 0.479
- AGACCTTC — lower, -0.206
- GCCCATCA — lower, 0.0129
- TCAATTGA — lower, -0.0329
- CCAGCGCG — higher, 0.189
- CATCGGTC — higher, 0.133
- GCAAGAAC — lower, -0.172
- GCGCCCGC — lower, 0.00897
- GCGATCCC — lower, -0.013
- ACTGAGAT — lower, -0.102
- AACTAAAG — lower, -0.13
- AGGGAACA — lower, -0.107
- TACGCATA — lower, -0.0141
- CTTGTCGC — higher, 0.0617
- TATCGAAA — higher, 0.0982
- CAGGATTA — higher, 0.0727
- GTATCAAC — higher, 0.152
- CGAGCACC — lower, 0.0192
- ACGACGAT — higher, 0.127
- AAATATGG — lower, 0.0289
- CTTGGGCC — lower, -0.158
- ATCAAGGG — higher, 0.0834
- AGCAGTAC — higher, 0.138
- ACCACGTC — lower, -0.0231
